Experimental data taken from publication PMC4336329 (PLoS ONE, 2015).
Screen size: about 310,000 compounds; about 14,000 (4.5%) showed an effect of 50% or more. The effect is printed as a negative number. Some of the results follow.

Each molecule was assayed against human ether-à-go-go-related gene (hERG) potassium channel (human, UniProt Q12809) (assay: primary screen, population patch clamp on CHO cells stably expressing hERG).
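Note: peak tail current of the secondary pulse compared with the same well before compound.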

Chain of human ether-à-go-go-related gene (hERG) potassium channel (Q12809 whole entry, looked up): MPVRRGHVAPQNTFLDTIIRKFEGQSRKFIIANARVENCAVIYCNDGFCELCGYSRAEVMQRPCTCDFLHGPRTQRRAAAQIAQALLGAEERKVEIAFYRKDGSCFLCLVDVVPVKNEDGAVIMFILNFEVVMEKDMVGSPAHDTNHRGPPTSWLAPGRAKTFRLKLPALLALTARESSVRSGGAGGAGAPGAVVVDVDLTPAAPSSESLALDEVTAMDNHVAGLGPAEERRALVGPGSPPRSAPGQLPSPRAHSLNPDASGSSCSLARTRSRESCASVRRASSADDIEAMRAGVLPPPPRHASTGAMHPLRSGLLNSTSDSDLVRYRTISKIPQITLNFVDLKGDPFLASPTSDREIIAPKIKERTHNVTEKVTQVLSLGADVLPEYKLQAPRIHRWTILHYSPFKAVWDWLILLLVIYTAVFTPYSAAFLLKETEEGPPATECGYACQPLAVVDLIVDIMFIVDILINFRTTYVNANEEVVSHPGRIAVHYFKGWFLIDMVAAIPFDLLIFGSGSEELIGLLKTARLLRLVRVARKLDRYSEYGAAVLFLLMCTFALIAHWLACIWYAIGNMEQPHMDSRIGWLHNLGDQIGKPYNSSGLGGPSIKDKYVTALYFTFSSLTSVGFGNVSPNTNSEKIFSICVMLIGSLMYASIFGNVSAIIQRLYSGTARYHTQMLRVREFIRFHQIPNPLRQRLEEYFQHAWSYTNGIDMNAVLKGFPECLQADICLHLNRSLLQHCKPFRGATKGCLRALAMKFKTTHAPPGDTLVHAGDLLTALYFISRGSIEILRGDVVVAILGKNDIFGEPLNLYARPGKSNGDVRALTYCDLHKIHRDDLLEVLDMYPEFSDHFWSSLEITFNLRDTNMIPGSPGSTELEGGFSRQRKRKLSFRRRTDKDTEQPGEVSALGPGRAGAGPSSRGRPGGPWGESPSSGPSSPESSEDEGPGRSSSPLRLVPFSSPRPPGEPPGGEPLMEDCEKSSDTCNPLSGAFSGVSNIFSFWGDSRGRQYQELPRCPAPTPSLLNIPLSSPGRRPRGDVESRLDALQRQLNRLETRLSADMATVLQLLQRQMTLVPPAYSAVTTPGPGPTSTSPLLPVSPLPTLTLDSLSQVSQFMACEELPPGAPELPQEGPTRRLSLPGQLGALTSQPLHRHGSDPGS

| SMILES | hERG current change (%, negative = inhibition) at 10uM [%] |
| --- | --- |
| COc1ccc(Cc2nnc(N)s2)cc1 | 15.3 |
| CC(Oc1ccc(Cl)cc1Cl)C(=O)NCCC1=CCCCC1 (centres unmarked) | 4.46 |
| O=C(N1CCCC1)C12CC3CC(C1)CC(C(=O)N1CCCC1)(C3)C2 | 9.48 |
| O=C(NCCO)C1CCN(S(=O)(=O)c2ccc(F)cc2)CC1 | 9.14 |
| CC(C)(C)NS(=O)(=O)c1ccc2c(c1)oc(=O)c1cc(S(=O)(=O)NC(C)(C)C)ccc12 | 6.26 |
| CSCc1ccc(C(=O)Nc2cccc(C)c2C)cc1 | 2.01 |
| CC(C)C(=O)Nc1ccc(NC(=O)c2ccc3c(c2)OCO3)cc1 | 10.2 |
| Cc1cccc2sc(NC(=O)c3ccc(NS(=O)(=O)c4cccs4)cc3)nc12 | -28.8 |
| CCOCCCNC(=O)CCNC(=O)c1cc(OC)c(OC)c(OC)c1 | -2.91 |
| CCC(C)Sc1ccc(-c2nc3ccc(C)cn3c2NCc2ccccc2)cc1OC.O=C(O)C(F)(F)F (centres unmarked) | 0.528 |
| CCCc1cc(=O)c2ccc(OCC(C)=O)cc2o1 | -21 |
| COc1cccc(-c2cc(C(F)(F)F)nc(N3CCCCC3)n2)c1 | 19.5 |
| Cc1ccc(NC(=O)C2CC2c2ccccc2)c([N+](=O)[O-])c1 (centres unmarked) | -3.54 |
| CSC(=Nc1ccc(Cl)cc1)N[n+]1ccccc1.[I-] | -58.8 |
| O=C(Cn1cnc2scc(-c3cccc([N+](=O)[O-])c3)c2c1=O)NCc1ccco1 | -54 |
| O=C(C[n+]1ccc(C(=O)N/N=C/c2ccc(O)cc2)cc1)c1ccccc1.[Br-] | -6.07 |
| COC(=O)Cc1ccc(NC(=S)N2CCN(C)CC2)cc1 | -0.432 |
| COc1ccc(C(=O)N2CCN(c3ccc(N4CCOCC4)nn3)CC2)cc1OC | 8.55 |
| CC(=O)c1ccc(N2CCN(C(=O)CCCc3nc4ccccc4s3)CC2)cc1 | -29.4 |
| COc1ccc(NS(=O)(=O)c2ccc(NC(=O)C3CC3)cc2)cc1 | 18.6 |
| CSC1=NCCN1S(=O)(=O)c1ccc(NC(C)=O)cc1 | -1.53 |
| COc1ccc(C(CCNCc2ccc(F)cc2)c2ccc(F)cc2)cc1 (centres unmarked) | -64.6 |

| SMILES | hERG current change (%, negative = inhibition) at 10uM [%] |
| --- | --- |
| Cc1ccc(S(=O)(=O)CCC(=O)OCC(=O)NCc2ccc(Cl)cc2)cc1 | 36.8 |
| COC(=O)N/N=C/c1ccccc1OCCOc1ccc(OC)cc1 | 16.4 |
| O=C(NCC(c1ccco1)N1CCc2ccccc21)c1ccccc1F (centres unmarked) | -19.8 |
| COc1ccc(CNc2oc(C)nc2C#N)cc1 | -1.09 |
| CC(C)Oc1ccc(C(=O)Nc2ccc(N3CCCC3)cc2)cc1 | 3.36 |
| CCN1CNC(=S)N(c2cc(C)ccc2C)C1 | 15.4 |
| CCO/C=C1/C(=O)N(c2ccccc2OC)C(=O)c2ccccc21 | 23.1 |
| CCCn1c(SCC(=O)NC(C)C23CC4CC(CC(C4)C2)C3)n[nH]c1=O (centres unmarked) | -19.6 |
| COc1cccc(C2C3=C(N=c4s/c(=C\c5ccc(O)cc5)c(=O)n42)c2ccccc2CC3)c1OC (centres unmarked) | 2.74 |
| CC(N=c1ccccn1C(=O)Nc1ccc(Cl)cc1)c1ccco1 (centres unmarked) | 5.75 |
| CCCCC(=O)NC(Nc1nc(C2CC2)cs1)(C(=O)OCC)C(F)(F)F (centres unmarked) | -14 |
| Cc1ccc(S(=O)(=O)N2CCOCC2)cc1NC(=O)CSc1nnc(C2CC2)n1C1CC1 | -7.36 |
| CCOC(=O)Cc1csc(-n2sc3ccccc3c2=O)n1 | 22.6 |
| CC1CCN(CC(=O)n2c3c(c4ccccc42)CCCC3)CC1.Cl | 0.546 |
| COc1ccccc1N(CC(=O)N1CCCCC1)S(=O)(=O)c1ccccc1 | 4.01 |
| O=C(CSc1nc(-c2ccccc2)nc2ccccc12)Nc1nccs1 | -3.64 |
| CCC1CCCN1Cn1cnc2c([nH]c3ccccc32)c1=O (centres unmarked) | -62.1 |
| COc1ccc(CCNC(=O)c2cc3c(=O)n4cccc(C)c4nc3s2)cc1OC | 21.3 |
| Cc1cc(C)cc(N(C(=O)Cn2nnc(-c3ccccc3)n2)C(C(=O)NC2CCCCC2)c2ccccn2)c1 (centres unmarked) | -5.43 |
| O=C(Nc1ccc(Cc2ccncc2)cc1)C1CCC(N2C(=O)C3C4C=CC(C4)C3C2=O)CC1 (centres unmarked) | 4.01 |
| COc1cccc2c1cc1c(=O)n(CC(=O)N3CCC(C)CC3)nc(C)n12 | 8.08 |
| O=C(N/N=C/c1ccccc1[N+](=O)[O-])c1ccc(CN2CCOCC2)cc1 | 0.305 |

| SMILES | hERG current change (%, negative = inhibition) at 10uM [%] |
| --- | --- |
| O=C(c1cc2cc(F)ccc2[nH]1)N(Cc1cccnc1)CC1CCCN(C2CCCCC2)C1 (centres unmarked) | -77.5 |
| CCOc1ccc(NC(=O)NC(=O)N(C)S(=O)(=O)c2ccc(C)cc2)cc1 | 9.97 |
| O=C(CNC(=O)Cn1ccc2ccccc2c1=O)NCCCN1CCN(c2cccc(Cl)c2)CC1 | -47 |
| CCOC(=O)c1[nH]c(C)c(C(=O)NCCN2CCOCC2)c1C | 7.78 |
| COc1ccc(OC)c(C(=O)CN2C(=O)NC(C)(c3ccccc3)C2=O)c1 (centres unmarked) | 7.79 |
| CC(OC(=O)CCCN1C(=O)c2ccccc2C1=O)C(=O)Nc1ncc(Cl)cc1Cl (centres unmarked) | -1.02 |
| O=C(NCCc1ccccc1)C(=O)NCC1OCCN1S(=O)(=O)c1ccccc1 (centres unmarked) | -20.3 |
| O=C(CN1CCCCCC1)N/N=C/c1cccs1 | 8.75 |
| COc1ccc(-c2oc3cccnc3c2-c2ccc(OC)nc2)cc1 | -0.15 |
| O=C1CCC(=O)N(O)CCCCCNC(=O)CCC(=O)N(O)CCCCCNC(=O)CCC(=O)N(O)CCCCCN1 | 6.14 |
| Cc1ccc2c(c1)N(C(=O)CCC(=O)N1CCN(c3cccc(C)c3C)CC1)CCO2 | -18.7 |
| CC(C)N(Cc1ccccc1)CC(O)COc1ccc(S(=O)(=O)N2CCOCC2)cc1Cl (centres unmarked) | -32.3 |
| CCOC(=O)N1CCC(C(=O)Nc2ccc(OCC)cc2)CC1 | 3.12 |
| Cc1ccc(/C=N/NC(=O)c2ccc(Cn3cc([N+](=O)[O-])cn3)o2)cc1 | -65 |
| Cc1ccc(OCCN2C(=O)S/C(=C\c3ccc(C)o3)C2=O)cc1 | 8.03 |
| Cc1cc(C)c(S(C)(=O)=O)c(S(=O)c2ccc(Cl)cc2)n1 (centres unmarked) | -5.4 |
| Cc1cc(C)nc(/N=C(\N)Nc2cccc(OCc3ccccc3)c2)n1 | -74.1 |
| CCCCN(C(=O)CNC(=O)c1ccco1)C(C(=O)NC1CCCCC1)c1ccc(OC)cc1OC (centres unmarked) | 0.632 |
| NC(=O)CC[C@@H]1NC(=O)[C@H](Cc2ccc(O)cc2)NC(=O)c2cc([N+](=O)[O-])cc(F)c2OCC[C@@H](C(N)=O)NC1=O | 20.5 |
| c1ccc2nc3c(nc2c1)[nH]c1ccccc13 | -15 |
| COc1ccc2c3c([nH]c2c1)C(C)=NCC3 | -14.8 |
| COc1cccc2cc(C(=O)NCc3ccc(F)cc3)c(=N)oc12 | 0.974 |

| SMILES | hERG current change (%, negative = inhibition) at 10uM [%] |
| --- | --- |
| CC(=O)N=C1SC2CS(=O)(=O)CC2N1c1ccccc1Cl (centres unmarked) | 3.7 |
| O=C(NCc1ccco1)C(c1ccncc1)N(C(=O)Cc1cccs1)c1ccccc1 (centres unmarked) | 3.44 |
| Cc1ccc(NS(=O)(=O)c2cc(C(=O)N3CCN(CCO)CC3)ccc2C)cc1 | 5.5 |
| O=C1Nc2ccccc2C(O)(C(=O)NC2CC2)N1c1ccc(Cl)c(Cl)c1 (centres unmarked) | -2.15 |
| O=S(=O)(NCC1CCCO1)c1ccc(Br)s1 (centres unmarked) | 5.29 |
| COc1ccccc1NC(=O)CCCc1nnc2n(C)c(=O)c3sccc3n12 | 14.2 |
| C/C(=N\OC(=O)c1ccc(Cl)cc1)c1sc(-c2ccccc2)nc1C | 2.17 |
| S=C(NCCCc1ccccc1)NCc1ccccc1 | -13.4 |
| Cc1ccc(Cn2c(C(CO)Nc3nc(-c4ccc(Cl)c([N+](=O)[O-])c4)cs3)nc3ccccc32)cc1 (centres unmarked) | 7.56 |
| COc1ccc(C2N(c3ccc(OC)cc3)C(=O)C3CCCN32)cc1 (centres unmarked) | -3.81 |
| OCCC#Cc1c(-c2ccsc2)sc2ccccc12 | -4.22 |
| O=C(CSc1n[nH]c(=O)[nH]c1=O)NCC1CCCCC1 | 5.22 |
| Cc1ccccc1OCC(=O)NC(C)c1ccccc1 (centres unmarked) | 13.3 |
| COc1ccc(/C=C/CN2CCN(Cc3cccc(OC)c3)C(CCO)C2)cc1 (centres unmarked) | -51.9 |
| O=c1c([N+](=O)[O-])c(N2CCOCC2)c2ccccc2n1-c1ccccc1 | 15.9 |
| Cc1nn(C)cc1S(=O)(=O)N1CCN(Cc2cccc(Cl)c2)CC1 | -2.64 |
| CC(O)(CS(=O)(=O)c1ccc(F)cc1)C(=O)Nc1ccc(C#N)c(C(F)(F)F)c1 (centres unmarked) | -21.1 |
| COc1cc2[nH]c(=S)nc(NCc3ccc(C)cc3)c2cc1OC | 4.37 |
| COc1ccc(C(=O)N=c2sccn2C)cc1 | 62.4 |
| COc1ccc(OC(C)C(=O)N(C)Cc2nc(-c3ccc(C)cc3)no2)cc1 (centres unmarked) | -18.2 |
